Tested on: tumors
Assay: DMBA-induced tumor growth in rats
Conditions: female rats with DMBA-induced tumors, treated once a week for three consecutive weeks, HMG-I 30 µg/rat, 1-19 peptide 50 µg/rat

With “Peptide 1-19: peptide 1-19 of HMG-I, commercially available from Santa Cruz Biotechnology, Santa Cruz, CA, USA (MSESSSKSSQPLASKQEKD; UniProt P17096 1-19, looked up, fragment)” the “Mean area of the tumor at the following treatment day” value (treatment day 14) was 1,4±0,9 cm^2 and the “Mean area of the tumor at the following treatment day” value (treatment day 21) was 1,5±0,8 cm^2.

— patent EP1079849B1, “USE OF HMG PROTEINS FOR THE PREPARATION OF MEDICAMENTS HAVING CYTOTOXIC ACTIVITY” (Istituto Di Ricerche " Giorgio Sisini", priority 1998, dated 2002)
